Out of some 270,000 compounds screened, about 620 (0.23%) were called active. The shares of active, inactive and inconclusive entries below differ from those in the screen. Calls come from the whole dose curve; as a rule, active = well fitted inhibition curve with a large enough effect in the polarisation, with a control signal flat (not every such curve was filed as active); inconclusive = small, poorly fitted or top-dose-only effect, or effect the other way, or a change in a side signal; inactive = no such curve, though single readings can be large or run the other way; the % refers to the polarisation. Where the call is inconclusive, the potency comes from a doubtful curve fit. A note “side channel” means that the fit belongs to a control or component signal, not to the main read-out.
Biological target: Menin (Homo sapiens) (UniProt O00255)
Test: qHTS Assay for Inhibitors Targeting the Menin-MLL Interaction in MLL Related Leukemias: Competition With Texas Red Labeled MLL-derived Mutant Peptide; for FP activity change, negative = inhibition: % of control where 0% means no effect
Conditions: fluorescence polarization; FP activity change, negative = inhibition: at 61.6 µM (top of the series)
Potency is the fitted concentration of half-maximal effect; tags give direction and shape of the fitted curve or compound fluorescence and quenching.

Sequence of UniProt O00255 (O00255 whole entry, looked up): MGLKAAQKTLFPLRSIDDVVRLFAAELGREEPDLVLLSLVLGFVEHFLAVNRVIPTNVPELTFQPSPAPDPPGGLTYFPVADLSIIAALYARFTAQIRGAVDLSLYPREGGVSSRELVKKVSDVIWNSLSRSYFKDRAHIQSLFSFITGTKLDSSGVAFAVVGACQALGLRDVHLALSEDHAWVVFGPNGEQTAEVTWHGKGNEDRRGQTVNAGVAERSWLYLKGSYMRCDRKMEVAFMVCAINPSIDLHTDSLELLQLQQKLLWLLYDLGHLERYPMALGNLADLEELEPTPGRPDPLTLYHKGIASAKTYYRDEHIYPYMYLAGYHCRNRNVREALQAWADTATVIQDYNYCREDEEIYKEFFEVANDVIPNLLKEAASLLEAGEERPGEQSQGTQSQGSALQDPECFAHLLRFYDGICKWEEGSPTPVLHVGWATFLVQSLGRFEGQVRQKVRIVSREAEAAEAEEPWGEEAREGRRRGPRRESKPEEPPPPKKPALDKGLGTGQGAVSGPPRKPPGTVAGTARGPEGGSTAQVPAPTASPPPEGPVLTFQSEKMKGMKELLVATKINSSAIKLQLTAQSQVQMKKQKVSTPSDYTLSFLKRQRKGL

SMILES | Potency | FP activity change, negative = inhibition
C/C(=N\NC(=O)c1nnn(-c2nonc2N)c1CSc1ccccc1)c1ccc2c(c1)OCO2 | inconclusive: 35.5 µM [inhibitor, single point] | –
Cc1ccc(-n2[nH]c(C)c(/C=N/Nc3ccc([N+](=O)[O-])cc3[N+](=O)[O-])c2=O)cc1 | inconclusive: 22.4 µM [quencher, side channel, partial curve] | –
Nc1[nH]n(-c2ccccc2)c(=O)c1N=Nc1ccc2c(c1)OCCO2 | inconclusive: 14.1 µM [quencher, side channel, partial curve] | –
Cc1ccc(C(=O)/C=C/c2ccc3c(c2)OCO3)o1 | inconclusive: 39.8 µM [fluorescent, side channel, single point] | –
O=C(CSc1nnc(-c2n[nH]c3ccccc23)n1-c1ccccc1)Nc1cccc(Cl)c1 | inconclusive: 39.8 µM [inhibitor, single point] | –
COc1ccc(S(=O)(=O)NCC2CCCN(Cc3ccc(C)o3)C2)cc1 (stereo unspecified) | inconclusive: 10 µM [fluorescent, side channel, partial curve] | –
COc1ccc(C(c2nnnn2C(C)(C)C)N2CCN(c3nc4ccccc4s3)CC2)cc1OC (stereo unspecified) | – | inactive: 4.04%
Cc1ccc(CCN2CC(C(=O)NCCCN(C)Cc3ccccc3)CC2=O)cc1 (stereo unspecified) | inconclusive: 7.94 µM [inhibitor, full curve, poor fit] | –
COCCSc1ccccc1C(=O)N1CCC(Cc2ccccc2)CC1 | inconclusive: 2 µM [fluorescent, side channel, full curve, poor fit] | –
CCCN1C(=O)/C(=C2/C=Cc3ccccc3N2CC)SC1=S | inconclusive: 7.94 µM [quencher, side channel, partial curve] | –
C#CCOCCOCCOCCNc1nc(N2CCN(C(=O)[C@H]([C@@H](C)CC)n3cc([C@@H](N)Cc4ccc(O)cc4)nn3)CC2)nc(N2CCN(C(=O)[C@H](CCCCN)n3cc([C@@H](N)C(C)CC)nn3)CC2)n1 (stereo partly specified) | inconclusive: 2.24 µM [fluorescent, side channel, partial curve] | –
CC(C)Oc1cccc(C(=O)NC(=S)Nc2cccc(NC(=O)c3ccccc3Cl)c2)c1 | inconclusive: 35.5 µM [inhibitor, single point] | –
Cc1cccc(Nc2nc(-c3ccncc3)cs2)c1 | inconclusive: 31.6 µM [quencher, side channel, single point] | –
COc1cccc(-c2ccc3ncnc(N(C)C)c3c2)c1 | – | inactive: -19.1%
CN(C)S(=O)(=O)c1ccc(Cl)c(NC(=O)CN2CCC(Cc3ccccc3)CC2)c1 | inconclusive: 7.94 µM [fluorescent, side channel, partial curve] | –
COc1ccc2c(c1)O[C@@H](c1cccc(C(F)(F)F)c1)[C@H](OC(=O)Nc1ccc(C)c(Br)c1)C2=O | inconclusive: 35.5 µM [inhibitor, single point] | –
CC(=O)c1cccc(NC(=O)C=C(C)C)c1 | inconclusive: 2 µM [inhibitor, partial curve] | –
CN(C)/C=C1\C(=O)N(c2ccc(Cl)c(Cl)c2)CS1(=O)=O | – | inactive: 3.98%
CSc1ccccc1NC(=O)C(=O)c1c[nH]c2ccccc12 | inconclusive: 10 µM [quencher, side channel, partial curve] | –

SMILES | Potency | FP activity change, negative = inhibition
Nc1nc(CN2CCN(Cc3ccc4c(c3)OCO4)CC2)nc(Nc2ccccc2)n1 | inconclusive: 11.2 µM [inhibitor, partial curve] | –
CC(C)CC1=C/C(=C/c2ccc(-c3ccccc3)o2)C(=O)O1 | inconclusive: 12.6 µM [quencher, side channel, partial curve] | –
COc1ccc(C(=O)C(C)Oc2cccc(NC(=O)c3cccc([N+](=O)[O-])c3)c2)cc1 (stereo unspecified) | inconclusive: 10 µM [quencher, side channel, partial curve] | –
CN(C(=O)c1ccccc1C(=O)OCC(=O)NCc1ccccc1)C1CCCCC1 | inconclusive: 39.8 µM [fluorescent, side channel, single point] | –
Fc1ccc(Cn2nnnc2CN2CCN(C3CCCCC3)CC2)cc1 | inconclusive: 12.6 µM [inhibitor, partial curve, poor fit] | –
C[C@@H]1CN2[C@H](c3ccc(Br)cc3)[C@H](C)CC[C@H]2C(=O)O1 | – | inactive: -17.7% [at 11.7 µM]
COc1ccc(N2CCN(C(=O)c3oc4ccccc4c3C)CC2)cc1 | inconclusive: 11.2 µM [fluorescent, side channel, partial curve] | –
Brc1ccc(-c2csc(N3CCc4ccccc4C3)n2)cc1 | inconclusive: 4.47 µM [inhibitor, full curve, poor fit] | –
Cc1ccc(N2CC(C)Cn3c2nc2c3c(=O)[nH]c(=O)n2C)cc1C (stereo unspecified) | inconclusive: 15.8 µM [inhibitor, partial curve, poor fit] | –
CCOc1ccc(Br)cc1S(=O)(=O)Nc1ccc(C(=O)OCC(=O)Nc2ccc(C#N)cc2)cc1 | inconclusive: 15.8 µM [inhibitor, single point] | –
Cc1[nH]c2ccccc2c1/C=N/NC(=O)C1CC1(c1ccccc1)c1ccccc1 (stereo unspecified) | inconclusive: 10 µM [quencher, side channel, partial curve] | –
CC(C)C(=O)Nc1sc2c(c1-c1nc3ccccc3[nH]1)CCCC2 | inconclusive: 12.6 µM [quencher, side channel, partial curve] | –
CC1=CC(C)(C)N(C(=O)CNC2CCCCC2)c2cc(C)ccc21 | inconclusive: 3.98 µM [fluorescent, side channel, full curve] | –
Cc1ccc(-n2nc3c(=O)n(C(C)C(=O)NCc4ccc5c(c4)OCO5)nc(C)c3c2C)cc1 (stereo unspecified) | inconclusive: 28.2 µM [fluorescent, side channel, partial curve] | –
NC(=O)CC(NC(=O)Cc1ccc(Cl)cc1)c1ccc(N2CCC(Cc3ccccc3)CC2)c([N+](=O)[O-])c1 (stereo unspecified) | inconclusive: 39.8 µM [inhibitor, single point] | –
O=C1Nc2ccccc2C12OCCCCO2 | inconclusive: 0.631 µM [inhibitor, partial curve, poor fit] | –
CN(c1cccc(NC(=O)Nc2ccc(Cl)cc2)c1)S(C)(=O)=O | inconclusive: 14.1 µM [quencher, side channel, partial curve] | –
Oc1[nH]c2ccccc2c1N=Nc1ccc(F)cc1 | inconclusive: 25.1 µM [quencher, side channel, partial curve] | –
O=C(c1ccccc1Cl)N1CCN(S(=O)(=O)N2CCCCC2)CC1 | inconclusive: 3.55 µM [inhibitor, full curve] | –

SMILES | Potency | FP activity change, negative = inhibition
O=C1CCCC2=C1C1O[C@](CCCCN3C(=O)c4ccccc4C3=O)(Cc3c1ccc1ccccc31)O2 | – | inactive: -5.9% [at 11.7 µM]
O=C(Nc1sc2c(c1C(=O)O)CCCCC2)c1cccs1 | inconclusive: 14.1 µM [quencher, side channel, partial curve] | –
Cc1ccc(-c2nc(N/N=C/c3cccnc3)c3ccccc3n2)cc1 | inconclusive: 15.8 µM [quencher, side channel, partial curve] | –
COc1ccc(-c2nc3cnc(N4CCOCC4)nc3n(-c3ccc(OC)cc3)c2=O)cc1 | – | inactive: -5%
O=C(CN1CCN(CC(=O)c2ccc(F)cc2)CC1)Nc1ccccc1Cl | inconclusive: 44.7 µM [inhibitor, partial curve] | –
O=C(Cc1cccs1)Nc1ccc(-c2nnc(-c3ccco3)o2)cc1 | inconclusive: 39.8 µM [fluorescent, side channel, single point] | –
O=C(Nc1ccc2c(c1)nc1n2CCN(Cc2ccccc2)C1)NC1CCCCC1 | – | inactive: -2.51%
COc1cccc(NC(=O)C2CCN(c3cnccn3)CC2)c1 | inconclusive: 1.41 µM [inhibitor, partial curve] | –
CC(C)Oc1cc(NC(=O)CS(=O)CC(=O)Nc2cccc(C(F)(F)F)c2)c(Cl)cc1Cl (stereo unspecified) | inconclusive: 28.2 µM [quencher, side channel, single point] | –
O=C1OCCN1C(=O)[C@H]1[C@H](c2ccc(F)cc2)C(c2ccccc2)=NN1c1ccc(Br)cc1 | inconclusive: 3.16 µM [quencher, side channel, partial curve] | –
Oc1ccc(-c2nccc(-c3ccc(Br)cc3)n2)cc1 | inconclusive: 28.2 µM [quencher, side channel, single point] | –
COc1ccc(-c2nc(CS(=O)CC(=O)NCc3ccc4c(c3)OCO4)c(C)o2)cc1OC (stereo unspecified) | – | inactive: -3.55%
COc1cc(OC)cc(C(=O)N2CCN(Cc3ccccc3[N+](=O)[O-])CC2)c1 | inconclusive: 31.6 µM [fluorescent, side channel, single point] | –
c1ccc(-c2ccc(OCCCn3cncn3)cc2)cc1 | inconclusive: 8.91 µM [inhibitor, full curve, poor fit] | –
O=C(CNS(=O)(=O)c1ccc(Br)s1)NCc1ccc(F)cc1 | inconclusive: 39.8 µM [fluorescent, side channel, single point] | –
CCc1ccc(/C=C2\CN(CC)Cc3c2nc2ccccc2c3C(=O)O)cc1 | inconclusive: 3.98 µM [inhibitor, full curve] | –
COc1ccc(C(=O)N=c2sc3ccccc3n2C)cc1 | inconclusive: 39.8 µM [inhibitor, single point] | –
CCN(CC)c1ccc(Nc2nc(-c3cccnc3)cs2)cc1 | inconclusive: 35.5 µM [quencher, side channel, single point] | –

Source: PubChem BioAssay AID1768 (National Center for Advancing Translational Sciences (NCATS), 2009)
